Reference: patent US11866449B2, “Crystalline polymorphs of a muscarinic acetylcholine receptor agonist” (NSC Therapeutics GmbH, priority 2016, dated 2024)

Assays:
[1] = system: AD patients and schizophrenics; conditions: cited from earlier work
[2] = Solid-state stability / transformation of crystal forms on storage, humidity and heating; type: physicochemical
Description: Compound A Crystalline Form II (0.4631 g; crystallized from acetonitrile) was placed in a desiccator at 95% relative humidity (saturated solution of Na2HPO4) at room temperature for one week (FIG. 15A). […] (very broad) and 133.9° C. […] X-ray powder diffraction confirmed that the material so obtained was crystalline:
a) During heating at 90° C. of Compound A crystal Form I (crystallized from ethyl acetate) the characteristic peaks of Form I decreased (particularly noticeable in solid-state CP/MAS ^13C NMR spectrum in the regions 14-15, 26-29, 44-46 and 63-66 ppm), whereas those of Compound A crystal Form II increased [diagnostic peaks (15.4, 14.7), (29.1, 25.9), (64.0, 65.7) ppm]. Compound A crystal Form I was completely converted to Compound A crystal Form II in 4 hrs.
b) Crystalline Form I/III Compound A, crystallized from water, was heated at 90° C. for 75 min.
c) Crystalline Form II Compound A was heated at 70° C. for 10 h, then left at room temperature overnight. Solid-state CP/MAS ^13C NMR of the product confirmed that crystalline Form II was unchanged.
a) Crystalline Form II Compound A was left at room temperature for 90 days.
Crystalline Form I Compound A (0.4149 g, crystallized from ethyl acetate) was placed in a desiccator at 95% relative humidity (saturated solution of Na2HPO4) at room temperature for one week.
The evidence of partial conversion of the anhydrous to the hydrate is based on the increased water content observed on repeated handling.

Aqueous solubility = type: physicochemical; conditions: thermodynamic from solid; API; deionized water, rotated for 2 days at room temperature
Description: Aqueous solubility was carried out by preparing 50 mg of API Monohydrate (Form III) in 2 ml of deionized water. The sample was prepared in triplicate and the preparations were rotated for 2 days at room temperature. Following rotation, the mixture remained undisturbed for 3 hours allowing any undissolved API to settle. The supernatant was filtered into scintillation vials using a 4 mm 0.45 microM PTFE filter. A 1 in 40 dilution was made by pipetting 25 microliter into 975 microliter of sample solvent. The resulting dilution was placed into vials for HPLC analysis.

[3] = Hygroscopicity (dynamic moisture uptake); type: physicochemical; conditions: API
Description: For the APIs the water uptake was evaluated in a dynamic moisture uptake experiment (SGA-100 Symmetric Vapor Sorption Analyzer, VTI Corporation). The dynamic moisture uptake profile for API (Form III) was completed in 10% increments with sorption from 40% to 90% RH, followed by desorption to 2% RH in 10% increments from 90% to 10% and 1% increments from 10% to 2%. The dynamic moisture uptake profile of API (Form II) was completed in 10% increments with sorption from 40% to 90% RH followed by desorption to 10%.

[4] = Long-term stability in bulk for the API at 25° C./60% RH
man = conditions: single oral dose; 1-45 mg tested
healthy elderly subjects = test: Separate Phase I study in healthy elderly subjects; type: in vivo, man; conditions: healthy elderly subjects (age 65-80 years) of both sexes
[5] = system: patients with xerostomia associated with primary or secondary Sjögren's syndrome; test: Phase II clinical trial in xerostomia associated with Sjögren's syndrome; type: in vivo, human
Description: A Phase II clinical trial was conducted to evaluate the tolerability, safety and efficacy of Compound A Form III (NGX267) at single doses of 10 mg, 15 mg and 20 mg (as capsules according to Example 30) compared with placebo when given to patients with xerostomia associated with primary or secondary Sjögren's syndrome. A total of 26 patients were recruited, and randomized to four treatment groups in four treatment periods at three study centers. […] On each study day, whole mouth salivary flow rates were measured as a primary parameter. As a secondary study parameter, subjective measurements of salivary gland dysfunction were assessed 2, 4, 6, 12, 14, and 24 hours post-dose using an 8-item visual analog scale. As an additional exploratory parameter, a standard Schirmer test was conducted bilaterally at baseline and 2, 12, 14, and 24 hours post-dose to assess tear production.

3×Tg-AD mice = conditions: cited from earlier work
[6] = Compound A Form II once daily for 4 days
[7] = between 6 and 24 hours post-dose, all three doses (10, 15, 20 mg), Form III

Compound: CCCCCCOc1nsnc1C1=CCCN(C)C1 [Xanomeline]
- Safety margin with respect to cholinergic adverse events ([1]; all clinical studies): unacceptable safety margin
- Behavioral disturbances in AD patients ([1]; in vivo): improvements
- Effect in schizophrenics ([1]; in vivo): efficacy in schizophrenics

Compound: CC[C@@H]1SC2(CCN(C)CC2)NC1=O [Form I, (S)-2-ethyl-8-methyl-1-thia-4,8-diazaspiro[4.5]decane-3-one]
- Interconversion of monohydrate Forms I and III [2]: does not convert to Form III
- Time to complete conversion to Form II on heating ([2]; 90° C., crystallized from ethyl acetate): 4 h
- Crystal form after storage at 95% relative humidity ([2]; room temperature, one week): still crystalline Form I

Compound: CC[C@@H]1SC2(CCN(C)CC2)NC1=O [Form III, (S)-2-ethyl-8-methyl-1-thia-4,8-diazaspiro[4.5]decane-3-one]
- solubility at 2 days (Aqueous solubility): 5300 µg/mL (≈ 24.7 mM)
- Water adsorption ([3]; 8-90% relative humidity): no water was adsorbed
- Relative humidity at which Form III begins to dehydrate ([3]; desorption): below 7%
- Relative humidity at which virtually complete water loss is achieved ([3]; desorption): 2%
- Hygroscopicity ([3]; dynamic moisture uptake): non-hygroscopic
- Water desorption ([3]; relative humidity above 7%): No water desorption was detected
- Interconversion of monohydrate Forms I and III [2]: does not convert to Form I
- Stability under various storage conditions [2]: stable under various storage conditions for at least two years
- Purity by HPLC (achiral) on long-term storage [4]: 100%
- Purity by HPLC (chiral) on long-term storage [4]: 99.9-100%
- Water content on long-term storage [4]: 7.6-8%
- Stability under long-term conditions ([4]; cGMP API): highly stable

Compound: CC[C@@H]1SC2(CCN(C)CC2)NC1=O [Form II, (S)-2-ethyl-8-methyl-1-thia-4,8-diazaspiro[4.5]decane-3-one]
- Behaviour upon equilibration at elevated humidity [2]: conversion to the monohydrate Form III occurs
- Behaviour when stored at ambient room temperature and humidity [2]: begins to convert to the hydrate form
- Crystal form after heating at 70° C. ([2]; 10 h, then room temperature overnight): unchanged
- Maximum tolerated dose (man): 35 mg

Compound: CC[C@@H]1SC2(CCN(C)CC2)NC1=O [Compound A, (S)-2-ethyl-8-methyl-1-thia-4,8-diazaspiro[4.5]decane-3-one]
- Maximum tolerated oral dose (healthy elderly subjects): 20 mg
- Subjective measures of salivary gland dysfunction (8-item visual analog scale) ([5]; 15 mg and 20 mg doses): significant improvement compared with placebo for all 8 items
- Tear production (Schirmer test) ([5]; 15 mg dose): increased tear production significantly over placebo
- Safety and tolerability ([5]; Compound A Form III capsules, single doses of 10 mg, 15 mg and 20 mg): safe, well tolerated
- Effectiveness with respect to xerostomia ([5]; Compound A Form III, 10, 15 and 20 mg): effective
- Tear production (Schirmer test), overall treatment effect ([5]; all doses, exploratory parameter): no overall treatment effect
- Maximum saliva flow versus placebo [5, 7]: significantly greater than that observed with placebo treatment
- Saliva production versus placebo [5, 7]: significantly greater than that observed with placebo treatment
- Relationship between dose and saliva production ([5]; in the first 6 hours and in the first 24 hours): linear relationship between dose and saliva production
- A and tau pathologies in the hippocampus and cortex (3×Tg-AD mice): reduced
- Spatial memory (3×Tg-AD mice): improve
- Purity by HPLC (achiral) on long-term storage [4]: 100%
- Purity by HPLC (chiral) on long-term storage [4]: 99.9-100%
- Specification under long-term conditions ([4]; clinical batch (cGMP), monohydrate Form III, bulk, 0, 3, 6, 9, 12, 18 and 24 month time point): met specification
- Water content on long-term storage ([4]; listed as NGX267): 7.2-8%
- Steady-state conditions [6]: attained on the third day of dosing

In brackets after ≈: the same amount, converted by molar mass. Read-outs that look alike come from different tables or passages of the source.
